{"source": "the supplement of paper PMC5499739", "note": "The full ranking holds about 16,000 sequences; the median of “Z-score” is about -0.37, and the highest 2% start at about 3.2. Some of the results follow."}
{"tested_on": "RBM10 RRM1-ZnF (GST-tagged construct)", "experiment": "RNAcompete 7-mer binding Z-score; higher = stronger binding preference", "procedure,_shortened": "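GST-tagged RBM10 constructs (20 pmol) and a designed pool of 241 399 RNAs up to 41 nt (1.5 nmol) were allowed to bind for 30 min at 4°C in 1 ml Hepes pH 7.8 buffer with glutathione Sepharose beads. After four 2-min washes at 4°C, bound RNA was identified by microarray hybridisation. Enrichment was scored per heptamer motif as a one-sided Z-score across the probes containing it.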"}
{"sequence": "AGUAGAG", "RNAcompete 7-mer binding Z-score": 1.38}
{"sequence": "UACGCUA", "RNAcompete 7-mer binding Z-score": -0.412}
{"sequence": "GAGGCAC", "RNAcompete 7-mer binding Z-score": 0.628}
{"sequence": "UCUGCAG", "RNAcompete 7-mer binding Z-score": -0.629}
{"sequence": "CAGUUCG", "RNAcompete 7-mer binding Z-score": -0.626}
{"sequence": "AAUGUCA", "RNAcompete 7-mer binding Z-score": -0.295}
{"sequence": "AGAAAAG", "RNAcompete 7-mer binding Z-score": 1.05}
{"sequence": "GCAGACG", "RNAcompete 7-mer binding Z-score": 0.657}
{"sequence": "CUCCCCA", "RNAcompete 7-mer binding Z-score": -0.435}
{"sequence": "AAGUCAC", "RNAcompete 7-mer binding Z-score": -0.47}
{"sequence": "GGAAUAU", "RNAcompete 7-mer binding Z-score": 1.16}
{"sequence": "GGUGUUC", "RNAcompete 7-mer binding Z-score": 0.534}
{"sequence": "UCGCAGC", "RNAcompete 7-mer binding Z-score": -0.386}
{"sequence": "ACCGCCC", "RNAcompete 7-mer binding Z-score": -0.701}
{"sequence": "AGCAGCU", "RNAcompete 7-mer binding Z-score": -0.457}
{"sequence": "ACUGAUU", "RNAcompete 7-mer binding Z-score": -0.428}
{"sequence": "GUAUGCA", "RNAcompete 7-mer binding Z-score": 0.472}
{"sequence": "GCAAGUU", "RNAcompete 7-mer binding Z-score": -0.116}
{"sequence": "GAAGUGG", "RNAcompete 7-mer binding Z-score": 3.46}
{"sequence": "UCAGUUA", "RNAcompete 7-mer binding Z-score": -0.464}
{"sequence": "AUGCGGU", "RNAcompete 7-mer binding Z-score": 0.933}
{"sequence": "GCAUAAA", "RNAcompete 7-mer binding Z-score": -0.376}
{"sequence": "UCCGAAU", "RNAcompete 7-mer binding Z-score": -0.821}
{"sequence": "CGGUUCA", "RNAcompete 7-mer binding Z-score": -0.383}
{"sequence": "UCUGGAC", "RNAcompete 7-mer binding Z-score": -0.487}
{"sequence": "AGAUAAA", "RNAcompete 7-mer binding Z-score": 0.0463}
{"sequence": "GUUAGGA", "RNAcompete 7-mer binding Z-score": 2.13}
{"sequence": "GGUUGGC", "RNAcompete 7-mer binding Z-score": 2.12}
{"sequence": "CAGGAUA", "RNAcompete 7-mer binding Z-score": 1.22}
{"sequence": "AGAAUGC", "RNAcompete 7-mer binding Z-score": -0.292}
{"sequence": "GCAACCA", "RNAcompete 7-mer binding Z-score": -0.266}
{"sequence": "GGCAUGC", "RNAcompete 7-mer binding Z-score": 0.173}
{"sequence": "GCCAUGA", "RNAcompete 7-mer binding Z-score": -0.451}
{"sequence": "AUACUAU", "RNAcompete 7-mer binding Z-score": -0.655}
{"sequence": "GGAAGGC", "RNAcompete 7-mer binding Z-score": 2.63}
{"sequence": "CUAGAGA", "RNAcompete 7-mer binding Z-score": -0.139}
{"sequence": "GUAUGAG", "RNAcompete 7-mer binding Z-score": 1.13}
{"sequence": "GACUUCG", "RNAcompete 7-mer binding Z-score": -0.5}
{"sequence": "UAACUUG", "RNAcompete 7-mer binding Z-score": -0.578}
{"sequence": "AACAGCC", "RNAcompete 7-mer binding Z-score": -0.766}
{"sequence": "AAAACGA", "RNAcompete 7-mer binding Z-score": -0.21}
{"sequence": "GGCUAUC", "RNAcompete 7-mer binding Z-score": -0.422}
{"sequence": "UGUCAUG", "RNAcompete 7-mer binding Z-score": -0.142}
{"sequence": "GGGCGUA", "RNAcompete 7-mer binding Z-score": 2.07}
{"sequence": "ACGGGGA", "RNAcompete 7-mer binding Z-score": 3.04}
{"sequence": "UUCUUAU", "RNAcompete 7-mer binding Z-score": -0.769}
{"sequence": "GAUGGAU", "RNAcompete 7-mer binding Z-score": 2.6}
{"sequence": "AUGGGCG", "RNAcompete 7-mer binding Z-score": 2.86}
{"sequence": "UGGUAGU", "RNAcompete 7-mer binding Z-score": 0.949}
{"sequence": "CCGUCGU", "RNAcompete 7-mer binding Z-score": -0.451}
{"sequence": "CACCUCG", "RNAcompete 7-mer binding Z-score": -0.366}
{"sequence": "GCGCAUU", "RNAcompete 7-mer binding Z-score": -0.552}
{"sequence": "AAGCGCC", "RNAcompete 7-mer binding Z-score": -0.435}
{"sequence": "UGGAUGG", "RNAcompete 7-mer binding Z-score": 4.14}
{"sequence": "GUUUAAG", "RNAcompete 7-mer binding Z-score": 0.446}
{"sequence": "CGUCCGU", "RNAcompete 7-mer binding Z-score": -0.591}
{"sequence": "CACGGGU", "RNAcompete 7-mer binding Z-score": 1.99}
{"sequence": "GUAGGAA", "RNAcompete 7-mer binding Z-score": 2.14}
{"sequence": "CUGCCCA", "RNAcompete 7-mer binding Z-score": -0.477}
{"sequence": "AGACUAG", "RNAcompete 7-mer binding Z-score": -0.0414}
{"sequence": "UAUAAUC", "RNAcompete 7-mer binding Z-score": -0.633}
{"sequence": "CCAUGCU", "RNAcompete 7-mer binding Z-score": -0.909}
{"sequence": "GAUAAGG", "RNAcompete 7-mer binding Z-score": 3.91}
{"sequence": "GACAGGU", "RNAcompete 7-mer binding Z-score": 2.19}
{"sequence": "AGAACAG", "RNAcompete 7-mer binding Z-score": 0.277}
{"sequence": "GUGAUUG", "RNAcompete 7-mer binding Z-score": 0.875}
{"sequence": "UAUGCAG", "RNAcompete 7-mer binding Z-score": 0.202}
{"sequence": "AGUGGAG", "RNAcompete 7-mer binding Z-score": 3.09}
{"sequence": "UCUAUGA", "RNAcompete 7-mer binding Z-score": -0.568}
{"sequence": "UUAGCUA", "RNAcompete 7-mer binding Z-score": -0.435}
{"sequence": "ACGGAGC", "RNAcompete 7-mer binding Z-score": 1.1}
{"sequence": "UGUGCUA", "RNAcompete 7-mer binding Z-score": -0.188}
{"sequence": "CCAUUUU", "RNAcompete 7-mer binding Z-score": -1.03}
{"sequence": "AGCUUCA", "RNAcompete 7-mer binding Z-score": -0.668}
{"sequence": "UGUGUAU", "RNAcompete 7-mer binding Z-score": 0.0658}
{"sequence": "GCGCCAG", "RNAcompete 7-mer binding Z-score": 0.394}
{"sequence": "UGGGUAA", "RNAcompete 7-mer binding Z-score": 2.97}
{"sequence": "AAACAGG", "RNAcompete 7-mer binding Z-score": 1.68}
{"sequence": "AUCUGAG", "RNAcompete 7-mer binding Z-score": -0.581}
{"sequence": "AAAUCCG", "RNAcompete 7-mer binding Z-score": -0.828}
{"sequence": "AGGUCCU", "RNAcompete 7-mer binding Z-score": -0.513}
{"sequence": "CCAUGGC", "RNAcompete 7-mer binding Z-score": -0.62}
{"sequence": "GCCGGCG", "RNAcompete 7-mer binding Z-score": -0.35}
{"sequence": "AUUGCUU", "RNAcompete 7-mer binding Z-score": -0.766}
{"sequence": "AGUUCGC", "RNAcompete 7-mer binding Z-score": -0.649}
{"sequence": "AACUUUG", "RNAcompete 7-mer binding Z-score": -0.727}
{"sequence": "GGGUCCG", "RNAcompete 7-mer binding Z-score": 1.56}
{"sequence": "UGCAGAU", "RNAcompete 7-mer binding Z-score": -0.113}
{"sequence": "GCGCCCG", "RNAcompete 7-mer binding Z-score": -0.366}
{"sequence": "UGCACUC", "RNAcompete 7-mer binding Z-score": -0.548}
{"sequence": "AUACACG", "RNAcompete 7-mer binding Z-score": -0.435}
{"sequence": "GCAGUGC", "RNAcompete 7-mer binding Z-score": -0.201}
{"sequence": "AUUGUAG", "RNAcompete 7-mer binding Z-score": 0.368}
{"sequence": "GAAACGG", "RNAcompete 7-mer binding Z-score": 2.26}
{"sequence": "GCGGGUC", "RNAcompete 7-mer binding Z-score": 1.93}
{"sequence": "ACCAACU", "RNAcompete 7-mer binding Z-score": -0.639}
{"sequence": "AUUAAUU", "RNAcompete 7-mer binding Z-score": -0.646}
{"sequence": "UGAGCCA", "RNAcompete 7-mer binding Z-score": -0.474}
{"sequence": "GUGCUAG", "RNAcompete 7-mer binding Z-score": 0.54}
{"sequence": "UGUCUCA", "RNAcompete 7-mer binding Z-score": -0.642}
